# The list shows a part of the results.
# Tested on: T1, C. trachomatis L2/434/Bu expressing GFP (CTL2-GFP)
# T1 construct: L2/434/Bu GFP intracellular growth in HeLa cells
# Set-up: species or system HeLa; C. trachomatis total inclusion area by high-content imaging, normalised to DMSO
# Settings: total inclusion area; 28.5 h, 10 µM; inhibitor
# In short: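 Imaging read-out: GFP inclusions and Hoechst nuclei captured by high-content imaging after fixation. Inclusion area/number = chlamydial growth; nuclei count = host cell viability. MIC calculated per earlier method.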
row,SMILES,% of control remaining
1,O=C(CSc1nc(=O)cc(O)[nH]1)N1CCc2ccccc21 [CBK269350],112.959
2,c1ccc(CCCN2CCN(Cc3cccc4ccccc34)CC2)cc1 [CBK264237],126.011
3,COc1ccc(F)c(CN(CC(C)(C)CN)C(=O)Nc2c(F)cccc2F)c1 [CBK002405C],4.727
4,Cc1cccc(CN2CCC(NC(=O)Cn3cnnn3)CC2)c1 [CBK305649],130.618
5,CN1CCOc2cc(S(=O)(=O)Nc3cccnc3N3CCOCC3)ccc21 [CBK062299],24.2044
6,c1ccc2c(c1)CCCN2c1ncnc2n[nH]cc12 [CBK287886],56.6456
7,Cc1nc2ccc(C(=O)O)cc2c2c1CC(CN)O2 (stereo not shown) [CBK286974],135.982
8,O=C(Nc1ccccc1)c1cccc(S(=O)(=O)NCc2ccncc2)c1 [CBK269980],95.2531
9,CN(C)c1ccc(-c2cnc3[nH]c(=O)n(C4CCCC4)c3n2)cc1 [CBK064964],86.1012
10,C[C@H]1[C@@H]2[C@@H](O)C([C@H](C)C(=O)N3CCCCC3)CC[C@@]2(C)CC[C@@H]1NC(=O)c1cnccn1 (stereo partly shown) [CBK289448],83.8308
11,C[C@H](NC(=O)N1CCC(c2nc(-c3ccccc3)c3ccccn23)CC1)c1ccccc1 [CBK047086],94.2819
12,COc1ccc(-c2cc(N3CCCN(C)CC3)n3nccc3n2)cc1 [CBK037244],94.1064
13,Cc1ncc([N+](=O)[O-])n1CC(=O)Nc1ccccc1F [CBK269335],94.9959
14,O=C(COc1ccc(N2CC(C(=O)O)CC2=O)cc1)Nc1cccc(C(F)(F)F)c1 (stereo not shown) [CBK268096],103.316
15,O=C(Cn1nnc2ccccc21)c1ccc2c(c1)CCN2S(=O)(=O)c1ccccc1 [CBK286464],62.6452
16,Cc1oc(NC(=O)CN2CCN(c3cccc(Cl)c3)CC2)c(C#N)c1C [CBK305906],49.1931
17,C/C(CC(=O)Nc1ccccc1C(N)=O)=N\NC(=O)c1ccoc1C [CBK262957],99.2177
18,Cc1cc(-c2cc(C)[nH]n2)[nH]n1 [CBK262079],106.079
19,CCN1/C(=C/C(=C/c2sc3ccccc3[n+]2CCCS(=O)(=O)[O-])OC)Sc2ccccc21 [CBK278203],80.4959
20,COc1ccc(CNCCN2CCOCC2)c(OC)c1 [CBK278180C],84.4265
21,NC(=O)c1ccc(SCC(=O)O)c([N+](=O)[O-])c1 [CBK034310],101.525
22,CCc1noc(C)c1C(=O)NCCN1CCCCC1C (stereo not shown) [CBK282219],98.8361
23,O=C(NCCC(c1ccccc1)c1ccco1)C1CCCN1 (stereo not shown) [CBK282499],119.28
24,O=C(O)C1=CC(c2ccc(O)cc2)n2ncnc2N1 (stereo not shown) [CBK286545],93.2675
25,O=C(C1CCCN1)N1CC2(CCCC2)c2c(F)cccc21 (stereo not shown) [CBK304489],52.1994
26,Cc1cccc(-c2ccc(CC3(C(N)=O)CCN(C(=O)CCc4ccccc4)CC3)cc2)c1 [CBK285796],41.2393
27,N=C1NC(=O)C(CC(=O)Nc2ccc(SC(F)F)cc2)S1 (stereo not shown) [CBK265648],109.057

row,SMILES,% of control remaining
1,Cc1nn(-c2ccccc2)c2[nH]c(=O)c(CNC(C)(C)C)cc12 [CBK282921],81.7603
2,CC(C(=O)NCCN1CCOCC1)N1c2cccc3cccc(c23)S1(=O)=O (stereo not shown) [CBK269911],96.9628
3,COC(=O)c1ccccc1NC(=O)c1c(C)c(-c2ccc(C)cc2)nc2ccccc12 [CBK263641],113.997
4,CN(C(=O)c1ccccc1C(=O)O)C1CC(C)(C)NC(C)(C)C1 [CBK287117],102.991
5,Cc1ccc(C)c(OCCN(C)c2cc(C3CC(N)C3)nc(N)n2)c1 (stereo not shown) [CBK307695],1.817
6,COC(=O)c1ccccc1NC(=O)CSc1nnc(-c2sc(N)nc2C)o1 [CBK266250],123.356
7,CCN(C(C)COC)S(=O)(=O)c1ccc(C(F)(F)F)nc1 (stereo not shown) [CBK304042],100.652
8,CSCCC(=O)N1CCN(C(=O)c2ccco2)CC1 [CBK144468],94.2022
9,O=C1COc2ccccc2CCCCC2(CCCN(C(=O)CCN3CCCC3=O)C2)CN1 (stereo not shown) [CBK291998],122.642
10,CC1CCCCN1CCCNC(=O)c1ccc(-c2nc(-c3ccc(C#N)cc3)cnc2N)cc1 (stereo not shown) [CBK107139],76.0297
11,Cc1nc(NCCN2CCCC(CO)C2)nc2c1CCCC2 (stereo not shown) [CBK307430],73.6958
12,Cc1[nH]ncc1C(=O)N1CCn2cc(C(F)(F)F)nc2C1 [CBK282307],120.727
13,CCC(=O)Nc1ccc(-c2csc(N(C)C)n2)cc1 [CBK304294C],80.8096
14,FC(F)(F)c1cccc(CN2CCC(N3CCCCC3)CC2)c1 [CBK261855],107.873
15,Cc1nc(C2CCN(C(=O)CCC3CCCO3)CC2)c2sccn12 (stereo not shown) [CBK282240],87.0512
16,CCC(C)(C)C1CCc2c(sc(NC(=O)CN3CCOCC3)c2C#N)C1 (stereo not shown) [CBK270048],80.0317
17,COc1ccc(NC(=O)c2csc(Nc3ccccc3)n2)cc1OC [CBK287840],104.612
18,CC(=O)Nc1ccc(NC(=O)CC2(CC(=O)O)CCCC2)cc1 [CBK296931],63.3184
19,CCOc1ccccc1CCNS(=O)(=O)c1ccc(Cl)c(Cl)c1 [CBK043610],77.9879
20,CCn1c2cc(C)oc2c2cnn(CC(=O)N3CCCCC3)c(=O)c21 [CBK284220],102.939
21,Cc1noc(C)c1NC(=O)c1ccc2ccccc2n1 [CBK200309],78.6361
22,CC(C)(C#N)c1ccccc1CN1CCCCC1c1[nH]ncc1C(N)=O (stereo not shown) [CBK304740],112.012
23,CNC(=O)c1ccc(-c2ccc(C)c(C)c2)nc1NCCOC [CBK105999],104.864
24,O=C(Nc1ccc2oc(-c3cccnc3)nc2c1)c1ccc(-c2ccc(OC(F)(F)F)cc2)o1 [CBK107713],70.3749
25,CCNc1nc(C#N)nc(Nc2ccccc2)n1 [CBK027733],70.2291
26,COc1ccc(NC(=O)CCCSc2nc(N)c3c(C)c(C)sc3n2)cc1 [CBK266547],117.155
27,O=CN1CCc2c([nH]c3ccccc23)C12CCN(CCCN1C(=O)C3CCCCC3C1=O)C2 (stereo not shown) [CBK039592],86.6022

row,SMILES,% of control remaining
1,COCCOc1ccc(-c2noc([C@@H]3CCCN3)n2)cn1 [CBK288883],104.101
2,COc1ccc(-c2csc(N3CCN(C)CC3)n2)cc1F [CBK305910],25.5307
3,Cc1ncccc1OC1(C(=O)NCc2cn3c(n2)SCC3)CCNCC1 [CBK307649],59.0204
4,CSc1nc(Cl)c(-c2ccccc2)c(N(C)C)n1 [CBK023169],80.7136
5,COc1ccc(S(=O)(=O)N(C)CC(=O)Nc2ccccc2C(F)(F)F)cc1OC [CBK266159],108.759
6,O=C(NCc1cccc(C(F)(F)F)c1)N1CCN(c2cc(C(F)(F)F)ccn2)CC1 [CBK156435],108.627
7,COc1ccccc1NC(=O)c1[nH]nc(O)c1Cc1c(Cl)cccc1Cl [CBK107846],91.4886
8,O=C(NCc1cccnc1)C1CCC(Cn2c(=S)[nH]c3ccccc3c2=O)CC1 (stereo not shown) [CBK266678],83.699
9,CC1=CCC(C(=O)O)C(C(=O)Nc2ccccc2NC(=O)c2ccc(C(F)(F)F)cc2)C1 (stereo not shown) [CBK265794],77.4618
10,O=C(CSc1nnc(Cc2ccccc2)o1)Nc1c(Cl)cc(Cl)cc1Cl [CBK266119],126.227
11,CC(=O)Nc1ccc(-c2nc3ncccc3o2)cc1C [CBK288132],84.0941
12,CC(C)NC(=O)[C@H]1CN(C(=O)c2cc[nH]n2)C[C@@H]1c1ccnc(N2CCCC2)n1 [CBK285526],81.7307
13,CCc1nc2ccc(C(=O)NC3=NN(c4ccccc4)C(=O)C3)cn2c1N(C)Cc1cccs1 [CBK145557],93.2572
14,O=C(O)C(Cc1ccccc1)N1C(=O)/C(=C/c2ccc([N+](=O)[O-])cc2)SC1=S (stereo not shown) [CBK263108],109.355
15,Cc1ccc2c(c1)-c1c(ssc1=S)C(C)(C)N2C(=O)COc1nc2ccccc2s1 [CBK262682],82.3967
16,O=C(Nc1ccc(S(=O)(=O)Nc2ncccn2)cc1)c1ccc(Cl)c([N+](=O)[O-])c1 [CBK263739],87.3913
17,Cc1n[nH]c(NNC(=O)COc2ccc(Cl)cc2)c1[N+](=O)[O-] [CBK261478],107.5
18,CCCSc1nnc(-c2ccccc2NC(=O)CC)c(O)n1 [CBK265081],110.686
19,CN1CCN(CCCCOc2ccc(Cc3ccccc3)cc2)CC1 [CBK269692C],86.1303
20,CCc1nnc(NS(=O)(=O)c2ccc(NC(=O)c3ccc(Cl)cc3Cl)cc2)s1 [CBK045493],82.9447
21,COc1ccc(S(=O)(=O)N(C)CC(=O)Nc2ccc(Br)cc2F)cc1Cl [CBK267916],96.662
22,Cn1ncc2c(C(=O)O)cc(-c3ccccc3)nc21 [CBK288024],105.189
23,C#CCNC(=O)[C@@H]1Cc2cn(Cc3cc(C)on3)c3cccc(c23)[C@H](CC(C)C)N1 [CBK289426],107.324
24,O=C(CSc1nnc(-c2ccncc2)n1-c1ccccc1)c1ccc(Br)cc1 [CBK266758],97.5519
25,C=CCn1c2cc(C)sc2c2cnn(CCC(C)=O)c(=O)c21 [CBK282868],87.1132

# Source: publication PMC12040169 (PLOS Biology, 2025)
